Test results published in publication PMC4336329 (PLoS ONE, 2015).
Screen size: about 310,000 compounds; about 2,200 (0.71%) showed an effect of 50% or more. Effects have a minus sign here. This is one part of the list.

The compounds below were run against human ether-à-go-go-related gene (hERG) potassium channel (human, UniProt Q12809) (assay: primary screen, population patch clamp on CHO cells stably expressing hERG).
Chain of human ether-à-go-go-related gene (hERG) potassium channel (Q12809 whole entry, looked up): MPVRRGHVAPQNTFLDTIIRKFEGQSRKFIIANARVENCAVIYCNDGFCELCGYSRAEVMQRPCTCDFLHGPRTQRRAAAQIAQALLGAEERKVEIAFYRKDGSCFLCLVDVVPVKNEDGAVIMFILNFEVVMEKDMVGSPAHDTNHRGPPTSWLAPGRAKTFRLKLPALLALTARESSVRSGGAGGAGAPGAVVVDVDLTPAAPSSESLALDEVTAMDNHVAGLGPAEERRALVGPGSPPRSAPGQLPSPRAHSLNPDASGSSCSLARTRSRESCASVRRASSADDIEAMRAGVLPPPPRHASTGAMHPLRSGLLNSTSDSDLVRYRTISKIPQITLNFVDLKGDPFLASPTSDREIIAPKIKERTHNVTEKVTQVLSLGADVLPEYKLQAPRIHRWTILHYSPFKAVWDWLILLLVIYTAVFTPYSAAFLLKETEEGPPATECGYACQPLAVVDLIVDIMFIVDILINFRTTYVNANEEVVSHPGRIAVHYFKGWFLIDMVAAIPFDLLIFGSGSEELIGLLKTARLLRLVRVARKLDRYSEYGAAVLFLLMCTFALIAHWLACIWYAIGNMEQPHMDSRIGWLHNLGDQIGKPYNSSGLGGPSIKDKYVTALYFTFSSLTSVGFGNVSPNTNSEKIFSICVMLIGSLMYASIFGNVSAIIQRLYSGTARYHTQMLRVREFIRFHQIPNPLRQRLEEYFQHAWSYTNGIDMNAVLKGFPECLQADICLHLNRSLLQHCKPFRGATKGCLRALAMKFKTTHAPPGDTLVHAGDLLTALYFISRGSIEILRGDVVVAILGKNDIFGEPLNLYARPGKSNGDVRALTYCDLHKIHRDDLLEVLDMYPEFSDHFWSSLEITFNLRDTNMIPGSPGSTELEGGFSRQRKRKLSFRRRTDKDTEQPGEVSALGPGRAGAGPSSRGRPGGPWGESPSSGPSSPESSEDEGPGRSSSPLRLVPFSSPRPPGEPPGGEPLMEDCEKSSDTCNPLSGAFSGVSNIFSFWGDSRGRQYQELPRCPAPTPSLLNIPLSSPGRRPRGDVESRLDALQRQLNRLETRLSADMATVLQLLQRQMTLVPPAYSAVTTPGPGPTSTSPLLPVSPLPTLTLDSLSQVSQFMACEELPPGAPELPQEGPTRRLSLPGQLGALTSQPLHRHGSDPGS

Compared with `CCS(=O)(=O)N1Cc2ccccc2CC1C(=O)Nc1nc(C)cs1` (centres unmarked), `COc1ccc(S(=O)(=O)NCC2CCCO2)cc1NC(=O)c1ccccc1F` (centres unmarked) is higher in “hERG current change (%, negative = inhibition) at 1uM” value: 14.1% for the first, 16.5% for the second.

Going from `Cc1noc(C(=O)N(C)c2ccccc2)c1Cl` to `C=CCN(C(=O)Nc1ccc2oc(C)nc2c1)c1ccccc1`, the “hERG current change (%, negative = inhibition) at 1uM” value falls from 32.5% to -0.898%.

Going from `CCOC(=O)c1c(C)oc2ccc(O)cc12` to `COc1ccc2c(c1OC)C(=O)OC2CC(=O)O` (centres unmarked), the “hERG current change (%, negative = inhibition) at 1uM” value rises from 11.5% to 15.2%.

Compared with `Cc1ccc(N(C(=O)CNC(=O)c2ccco2)C(C(=O)NC2CCCC2)c2ccncc2)c(C)c1` (centres unmarked), `Cc1ccc(C(C(=O)NC2CCCC2)N(Cc2ccco2)C(=O)CCC(=O)Nc2ccccn2)cc1` (centres unmarked) is lower in “hERG current change (%, negative = inhibition) at 1uM” value: 18.8% for the first, -0.304% for the second.

Compared with `Cc1nc2c(=O)n(C)c(=O)nc-2n(C)n1`, `Cc1cccc(Cn2cnc3c(sc4nc(C)cc(C)c43)c2=O)c1` is higher in “hERG current change (%, negative = inhibition) at 1uM” value: 4.43% for the first, 10.5% for the second.

Going from `CN(C)c1ccc(/C=C/C(=O)c2ccc3c(c2)OCCO3)cc1[N+](=O)[O-]` to `COc1cc(C(=O)Nc2ccc3c(c2)OCCO3)ccc1OC(F)F`, the “hERG current change (%, negative = inhibition) at 1uM” value falls from 5.57% to -3.81%.

Compared with `COc1ccccc1NC(=O)CCN1CCN(C)CC1`, `COc1ccc(NC(=O)c2sc(N3CCOCC3)nc2-c2ccccc2)c(OC)c1` is lower in “hERG current change (%, negative = inhibition) at 1uM” value: 13% for the first, -1.09% for the second.

Going from `Nc1ccc(-n2nnnc2-c2ccco2)cc1` to `O=C(CC1(O)C(=O)Nc2ccccc21)c1ccc(-n2cnnn2)cc1` (centres unmarked), the “hERG current change (%, negative = inhibition) at 1uM” value rises from 11.1% to 15.5%.

Going from `CC(C)[C@H](NC(=O)N1CC(=O)Nc2ccccc21)C(=O)N[C@H](Cc1c[nH]c2ccccc12)C(=O)O` to `CC(C)=C(NC(=O)c1ccccc1)C(=O)NCc1ccccc1`, the “hERG current change (%, negative = inhibition) at 1uM” value rises from 3.03% to 6.4%.

Going from `COc1ccc(-c2[nH]c(-c3cccc(OC)c3)nc2SCC(=O)NCc2ccco2)cc1` to `COc1ccc(OCC(=O)Nc2ccc(S(=O)(=O)Nc3cc(C)on3)cc2)cc1`, the “hERG current change (%, negative = inhibition) at 1uM” value falls from 13.8% to -9.83%.

First: O=C(Nc1ccc2c(c1)CCC2)c1cc(F)cc(F)c1
Second: COc1ccc(C(=O)Nc2ccc3c(c2)C(=O)NC3=O)cc1
The “hERG current change (%, negative = inhibition) at 1uM” value of the first is higher: 11.9% for the first, 7.09% for the second.

Going from `CCC(=O)N1N=C(c2ccccc2)CC1c1ccc([N+](=O)[O-])cc1` (centres unmarked) to `CC(C)c1ccc(NC(=O)COc2ccccc2)cc1`, the “hERG current change (%, negative = inhibition) at 1uM” value rises from -2.04% to 13.4%.

First: CC(C)(C)NC(=O)C1CCC(CNc2c(N3CCCCC3)c(=O)c2=O)CC1 (centres unmarked)
Second: O=C(NC1=NCCS1)c1ccc(Cl)c(S(=O)(=O)N2CCCCC2)c1
The “hERG current change (%, negative = inhibition) at 1uM” value of the first is higher: 9.61% for the first, 7.3% for the second.

First: Cc1ccc(NC(=S)N2CCOCC2)c(C)c1
Second: Cc1cccc(Nc2ccccc2C(=O)OCC(=O)N2CCOCC2)c1C
The “hERG current change (%, negative = inhibition) at 1uM” value of the first is higher: 16.4% for the first, 8.09% for the second.

Going from `COc1ccccc1NC(=O)c1cc(C(=O)Nc2ccccc2OC)cc([N+](=O)[O-])c1` to `COc1cc(OC)cc(C(=O)Nc2c(C)nn(-c3ccccc3)c2C)c1`, the “hERG current change (%, negative = inhibition) at 1uM” value falls from 10.4% to 0.777%.

First: Cc1cccc(N(CC(=O)Nc2cccnc2)S(C)(=O)=O)c1
Second: Cc1ccc(S(=O)(=O)N2CCCN(C(=O)CNC(=O)c3cccc(C)c3)CC2)cc1
The “hERG current change (%, negative = inhibition) at 1uM” value of the first is higher: 7.13% for the first, -23.6% for the second.

Going from `CC1CCN(C(=O)c2cc(S(=O)(=O)N3CCOCC3)ccc2N2CCCC2)CC1` to `Cc1nc2ccccc2n1S(=O)(=O)c1ccc(S(=O)(=O)N2CCCCCC2)cc1`, the “hERG current change (%, negative = inhibition) at 1uM” value rises from 12.7% to 14.6%.

Compared with `COc1ccc(OCCCC(=O)N(CCC2=CCCCC2)c2c(N)n(Cc3ccccc3)c(=O)[nH]c2=O)cc1`, `O=C(CCN1C(=O)c2ccccc2C1=O)NCCC1=CCCCC1` is lower in “hERG current change (%, negative = inhibition) at 1uM” value: 13.9% for the first, -1.26% for the second.

Going from `O=C(COc1ccc(Cl)cc1)N1CCN(C(=O)c2cccc(F)c2)CC1` to `O=C(c1ccco1)N1CCN(c2ncnc3c(-c4ccc(Cl)cc4)nsc23)CC1`, the “hERG current change (%, negative = inhibition) at 1uM” value rises from -8.03% to 17.1%.

First: O=C(NCc1ccc2c(c1)OCO2)c1nc(S(=O)(=O)Cc2ccccc2F)ncc1Cl
Second: CCn1c(C(O)c2ccc3c(c2)OCO3)nc2ccccc21 (centres unmarked)
The “hERG current change (%, negative = inhibition) at 1uM” value of the first is lower: 0.887% for the first, 7.78% for the second.

Compared with `CCN(CC)S(=O)(=O)c1ccc(OC(C)C)c(NC(=O)C2=COCCO2)c1`, `O=C(Nc1cccc(-c2nc3ccccc3s2)c1)C1=COCCO1` is higher in “hERG current change (%, negative = inhibition) at 1uM” value: -0.431% for the first, 5.84% for the second.

First: CC(=O)Nc1ccc2nc(-c3cccn3C)[nH]c2c1
Second: Cc1ccc2nc(/C(C#N)=C/c3ccc(-c4ccccc4C(=O)O)o3)[nH]c2c1
The “hERG current change (%, negative = inhibition) at 1uM” value of the first is higher: 13.6% for the first, 13.5% for the second.

Going from `CC(C(=O)N1CCc2ccccc21)N1CCN(c2ccccn2)CC1` (centres unmarked) to `Cc1ccc(-c2nn(-c3ccccc3)cc2C(=O)N2CCN(c3ccccn3)CC2)cc1`, the “hERG current change (%, negative = inhibition) at 1uM” value falls from 7.44% to 6.15%.

Going from `O=C(O)c1cccnc1C(=O)O` to `CC(CC(=O)O)C(=O)c1ccc(Cl)c([N+](=O)[O-])c1` (centres unmarked), the “hERG current change (%, negative = inhibition) at 1uM” value rises from 14.2% to 16.2%.

First: CC(C)(C)c1ccc(C(=O)Nc2cccc3c(=O)[nH][nH]c(=O)c23)cc1
Second: COc1ccc(OC)c2[nH]c(=O)c(CCNC(=O)c3ccc(S(=O)(=O)N4CCCC4)cc3)cc12
The “hERG current change (%, negative = inhibition) at 1uM” value of the first is higher: 4% for the first, -11.4% for the second.

Compared with `c1cncc(-c2csc(NCc3ccco3)n2)c1`, `CN(C)c1ccc(/C=C(\C#N)C(=O)NCc2ccco2)cc1` is lower in “hERG current change (%, negative = inhibition) at 1uM” value: 8.93% for the first, 2.53% for the second.

Compared with `Cc1ccsc1/C=N/NS(=O)(=O)c1ccc([N+](=O)[O-])cc1`, `CC1N(C)c2cc(NC(=O)c3cccs3)c(P(=O)(Nc3ccc([N+](=O)[O-])cc3)N3CCOCC3)cc2C1(C)C` (centres unmarked) is higher in “hERG current change (%, negative = inhibition) at 1uM” value: 3.03% for the first, 13.7% for the second.

Compared with `O=C(COc1cc([N+](=O)[O-])cc2cccnc12)NCCC1=CCCCC1`, `COCCNC(=O)CCc1nc2cccnc2n1Cc1ccc(OC)cc1` is higher in “hERG current change (%, negative = inhibition) at 1uM” value: -34.6% for the first, 12.5% for the second.

First: Cc1ccn2c(NC(=O)c3ccco3)c(-c3ccccc3)nc2c1
Second: Cc1nnc(NC(=O)CSc2cn(Cc3ccccc3)c3ccccc23)s1
The “hERG current change (%, negative = inhibition) at 1uM” value of the first is higher: 6.02% for the first, 3.59% for the second.

Going from `CCOC(=O)CSC1=NN2CCS(=O)(=O)N=C2S1` to `CC(=O)N=C1SC2CS(=O)(=O)CC2N1Cc1ccc(C)cc1` (centres unmarked), the “hERG current change (%, negative = inhibition) at 1uM” value falls from 18.8% to 6.15%.

Compared with `C=CCSc1nnc(CNC(=O)c2ccccc2C)n1C(C)C`, `CC(C)CC(C)c1cc(N)nc2nc3ccccc3n12` (centres unmarked) is lower in “hERG current change (%, negative = inhibition) at 1uM” value: 11.8% for the first, -16.1% for the second.

Going from `CC(C)(C)OC(=O)N/N=C/c1cc(N=Nc2ccccc2)ccc1O` to `Oc1ccc(/C=N/N2CCN(C3c4ccccc4-c4ccccc43)CC2)cc1O`, the “hERG current change (%, negative = inhibition) at 1uM” value rises from 14.3% to 15.2%.

First: COC(=O)CCC(=O)Nc1ccc(S(=O)(=O)Nc2cc(OC)nc(OC)n2)cc1
Second: O=C(COC(=O)c1ccc(NS(=O)(=O)c2cccs2)cc1O)Nc1ccc(F)cc1
The “hERG current change (%, negative = inhibition) at 1uM” value of the first is lower: 0.393% for the first, 14.3% for the second.

First: COc1ccc(NC(=S)NNC(=O)Cn2nc(C(F)F)cc2C(F)F)cc1
Second: COCCn1c(SCC(=O)Nc2sccc2C(N)=O)nnc1-c1ccncc1
The “hERG current change (%, negative = inhibition) at 1uM” value of the first is higher: 10.2% for the first, 1.99% for the second.

Compared with `Cc1c(CC(=O)O)c(=O)oc2cc3occ(-c4ccccc4)c3cc12`, `COC(=O)c1cc(Cl)c(NS(=O)(=O)c2ccccc2)cc1OC` is higher in “hERG current change (%, negative = inhibition) at 1uM” value: -7.78% for the first, 16.7% for the second.

Going from `O=C(/C=C/c1ccco1)Nc1ccccn1` to `O=C(CN1CCOCC1)Nc1ncc(Cc2cccc(Cl)c2Cl)s1`, the “hERG current change (%, negative = inhibition) at 1uM” value falls from 12.7% to -11.1%.

Compared with `CC(CCc1ccccc1)NCCC#N.Cl` (centres unmarked), `CC(C)N1CCN(CCCc2ccccc2)CC1CCO` (centres unmarked) is higher in “hERG current change (%, negative = inhibition) at 1uM” value: 8.28% for the first, 11.6% for the second.

Going from `Cc1ccc(S(=O)(=O)CCc2nnc(NC(=O)CCl)s2)cc1C` to `Cc1n[nH]c(C)c1CCC(=O)N/N=C/c1cccs1`, the “hERG current change (%, negative = inhibition) at 1uM” value rises from 0.514% to 15.6%.

First: CCc1sc(C(=O)Nc2cc(Cl)ccc2N2CCCCC2)cc1C
Second: Cc1nc2ncnn2c(C)c1Cc1ccc(Cl)cc1
The “hERG current change (%, negative = inhibition) at 1uM” value of the first is lower: -1.76% for the first, 9.93% for the second.

First: CN(Cc1cc2cc(F)ccc2[nH]1)Cc1nc(-c2cnccn2)no1
Second: Cc1nnc(N/N=C/c2cc(C)n(-c3ccc(F)cc3)c2C)n1N.Cl
The “hERG current change (%, negative = inhibition) at 1uM” value of the first is lower: 0.822% for the first, 6.13% for the second.

First: O=C1CCCCC1Oc1ccc2ccc(=O)oc2c1 (centres unmarked)
Second: O=C1C2CCCN2C(c2cccs2)N1c1ccc(Cl)cc1 (centres unmarked)
The “hERG current change (%, negative = inhibition) at 1uM” value of the first is higher: 13.6% for the first, 7.28% for the second.

First: O=c1[nH]c(=S)n(C2CC2)c(O)c1/C=N/N1CCOCC1
Second: COc1cc2[nH]c3c(=O)n4c(nc3c2cc1OC)SCCC4
The “hERG current change (%, negative = inhibition) at 1uM” value of the first is lower: 0.902% for the first, 6.41% for the second.

Going from `Cc1cc(OCCOCCNC(C)C)cc(C)c1Cl.O=C(O)C(=O)O` to `COc1ccccc1CNS(=O)(=O)c1cc(CN2C(=O)c3cccnc3C2=O)ccc1OC`, the “hERG current change (%, negative = inhibition) at 1uM” value rises from -9.73% to 11.8%.

First: Cc1c(C(=O)O)nnn1-c1nonc1N
Second: O=C(NC1CC1)C1=C[C@@H](c2c[nH]c3ccccc23)C[C@@H](OCc2ccc(CO)cc2)O1
The “hERG current change (%, negative = inhibition) at 1uM” value of the first is higher: 15.8% for the first, -9.13% for the second.

`COc1cc(/C=C/c2[nH]c(=O)[nH]c(=O)c2[N+](=O)[O-])cc([N+](=O)[O-])c1O` was tested, and the “hERG current change (%, negative = inhibition) at 1uM” value was 16.3%.
